{"source": "the supplement of paper PMC12355420", "note": "Counter-ions that a name gives are not always drawn. The list shows a part of the results. Repeats are few or missing, and single values can be far off.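 Also: screen of an FDA-approved drug library, NanoLuc luminescence read after lysing the treated cells, taken as a measure of mutant VPS33A protein stability.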", "data": [{"tested_on": "HeLa VPS33A KO + NLuc-VPS33A R498W", "test": "relative mutant VPS33A R498W amount (NanoLuc luminescence) vs DMSO (fraction of DMSO); HeLa model of a glycosaminoglycan (GAG) storage disease; KI is knock-in and KO knock-out; SDC1 is syndecan 1; higher = higher mutant VPS33A level", "conditions": "50 µM; 24 h", "values": [{"smiles": "CCCCN(CCCC)CC(O)c1cc(Cl)cc2c1-c1ccc(Cl)cc1/C2=C/c1ccc(Cl)cc1", "note": "(stereo not given) [Lumefantrine]", "relative mutant VPS33A R498W amount": 1.25}, {"smiles": "CCC(=O)OCC(=O)[C@@]1(OC(=O)CC)[C@@H](C)C[C@H]2[C@@H]3CCC4=CC(=O)C=C[C@]4(C)[C@@]3(F)[C@@H](O)C[C@@]21C", "note": "[Betamethasone Dipropionate]", "relative mutant VPS33A R498W amount": 0.425}, {"smiles": "O=[N+]([O-])c1cn2c(n1)OC[C@@H](OCc1ccc(OC(F)(F)F)cc1)C2", "relative mutant VPS33A R498W amount": 1.36}, {"smiles": "COc1cc2c(cc1OC)CC(=O)N(CCCN(C)C[C@H]1Cc3cc(OC)c(OC)cc31)CC2", "note": "[Ivabradine HCl]", "relative mutant VPS33A R498W amount": 1.24}, {"smiles": "C[C@H](CS)C(=O)N1CCC[C@H]1C(=O)O", "note": "[Captopril]", "relative mutant VPS33A R498W amount": 1.16}, {"smiles": "O=C(O)C1(C(=O)O)CCC1.[NH2-].[NH2-].[Pt+2]", "note": "[Carboplatin]", "relative mutant VPS33A R498W amount": 1.85}, {"smiles": "Nc1nc2ccc(OC(F)(F)F)cc2s1", "note": "[Riluzole]", "relative mutant VPS33A R498W amount": 0.389}, {"smiles": "C=CCc1cc(OC)c(O)c(C(=O)NCCO)c1", "note": "[Alibendol]", "relative mutant VPS33A R498W amount": 1.4}, {"smiles": "N[C@@H](Cc1ccc(O)c(O)c1)C(=O)O", "note": "[Levodopa]", "relative mutant VPS33A R498W amount": 0.682}, {"smiles": "Cc1cn([C@H]2C[C@H](N=[N+]=[N-])[C@@H](CO)O2)c(=O)[nH]c1=O", "note": "[Zidovudine]", "relative mutant VPS33A R498W amount": 1.71}, {"smiles": "CC(C)(C#N)c1cc(Cn2cncn2)cc(C(C)(C)C#N)c1", "note": "[Anastrozole]", "relative mutant VPS33A R498W amount": 1.32}, {"smiles": "CNCc1ccc(-c2[nH]c3cc(F)cc4c3c2CCNC4=O)cc1", "relative mutant VPS33A R498W amount": 6.08}, {"smiles": "CCOC(=O)C1=C(C)NC(C)=C(C(=O)OCC)C1c1ccccc1/C=C/C(=O)OC(C)(C)C", "note": "[Lacidipine]", "relative mutant VPS33A R498W amount": 0.644}, {"smiles": "Cc1cc(=O)[nH]c(=S)[nH]1", "note": "[Methylthiouracil]", "relative mutant VPS33A R498W amount": 1.13}, {"smiles": "Cc1cn[nH]c1", "note": "[Fomepizole]", "relative mutant VPS33A R498W amount": 1.09}, {"smiles": "Nc1ccc(S(=O)(=O)Nc2nccs2)cc1", "note": "[Sulfathiazole]", "relative mutant VPS33A R498W amount": 1.16}, {"smiles": "COc1cccc(-c2ccc(NC(=O)C3=C(C(=O)O)CCC3)c(F)c2)c1", "note": "[Vidofludimus]", "relative mutant VPS33A R498W amount": 0.704}, {"smiles": "COc1cccc(OC)c1C(=O)N[C@@H]1C(=O)N2[C@@H]1SC(C)(C)[C@@H]2C(=O)O", "note": "[Methicillin (sodium salt)]", "relative mutant VPS33A R498W amount": 1.24}, {"smiles": "O=C(O)Cc1cc(I)c(Oc2ccc(O)c(I)c2)c(I)c1", "note": "[Tiratricol]", "relative mutant VPS33A R498W amount": 0.965}, {"smiles": "COc1ncnc(NS(=O)(=O)c2ccc(N)cc2)c1OC", "note": "[Sulfadoxin]", "relative mutant VPS33A R498W amount": 1.03}, {"smiles": "O=C1CN(/N=C/c2ccc([N+](=O)[O-])o2)C(=O)N1", "note": "[Nitrofurantoin]", "relative mutant VPS33A R498W amount": 0.866}, {"smiles": "COc1ccc2[nH]c([S+]([O-])Cc3ncc(C)c(OC)c3C)nc2c1", "note": "(stereo not given) [Omeprazole]", "relative mutant VPS33A R498W amount": 0.994}, {"smiles": "NC[C@@H]1O[C@H](O[C@H]2[C@@H](O)[C@H](O[C@@H]3[C@@H](O)[C@H](N)C[C@H](N)[C@H]3O[C@H]3O[C@H](CN)[C@@H](O)[C@H](O)[C@H]3N)O[C@@H]2CO)[C@H](N)[C@@H](O)[C@@H]1O", "note": "[Neomycin sulfate]", "relative mutant VPS33A R498W amount": 0.868}, {"smiles": "CCC(CC)[C@H](NC(C)=O)[C@@H]1[C@H](O)[C@@H](C(=O)O)C[C@H]1NC(=N)N", "note": "[Peramivir Trihydrate]", "relative mutant VPS33A R498W amount": 1.21}, {"smiles": "CCCSc1ccc2[nH]c(NC(=O)OC)nc2c1", "note": "[Albendazole]", "relative mutant VPS33A R498W amount": 0.582}, {"smiles": "CCCc1ncc(C[n+]2ccccc2C)c(N)n1", "note": "[Amprolium HCl]", "relative mutant VPS33A R498W amount": 1.23}, {"smiles": "CC1CCc2cc(F)cc3c(=O)c(C(=O)O)cn1c23", "note": "(stereo not given) [Flumequine]", "relative mutant VPS33A R498W amount": 1.53}, {"smiles": "CC(COc1ccccc1)NC(C)C(O)c1ccc(O)cc1", "note": "(stereo not given) [Isoxsuprine (hydrochloride)]", "relative mutant VPS33A R498W amount": 1.55}, {"smiles": "CCOC(=O)[C@H](CCc1ccccc1)N[C@@H](C)C(=O)N1Cc2ccccc2C[C@H]1C(=O)O", "note": "[Quinapril HCl]", "relative mutant VPS33A R498W amount": 1.44}, {"smiles": "C[C@H]1CN(C[C@H](Cc2ccccc2)C(=O)NCC(=O)O)CC[C@@]1(C)c1cccc(O)c1", "note": "[Alvimopan]", "relative mutant VPS33A R498W amount": 1.47}, {"smiles": "Nc1nc2c(ncn2COCCO)c(=O)[nH]1", "note": "[Acyclovir]", "relative mutant VPS33A R498W amount": 0.892}, {"smiles": "C1N2CN3CN1CN(C2)C3", "note": "[Methenamine]", "relative mutant VPS33A R498W amount": 1.17}, {"smiles": "COC(=O)N[C@H](C(=O)N1CC2(CC2)C[C@H]1c1nc(-c2ccc3c(c2)C(F)(F)c2cc(-c4ccc5[nH]c([C@@H]6[C@H]7CC[C@H](C7)N6C(=O)[C@@H](NC(=O)OC)C(C)C)nc5c4)ccc2-3)c[nH]1)C(C)C", "note": "[Ledipasvir]", "relative mutant VPS33A R498W amount": 0.351}, {"smiles": "O=c1c(-c2ccc(O)cc2)coc2cc(O)ccc12", "note": "[Daidzein]", "relative mutant VPS33A R498W amount": 1.12}, {"smiles": "CC/C(=C(/CC)c1ccc(O)cc1)c1ccc(O)cc1", "note": "[Diethylstilbestrol]", "relative mutant VPS33A R498W amount": 0.938}, {"smiles": "Nc1ccc(C(=O)NCC(=O)O)cc1", "note": "[Sodium 4-amiropparaty Hyalrate]", "relative mutant VPS33A R498W amount": 0.774}, {"smiles": "CC(C[N+](C)(C)C)OC(N)=O", "note": "(stereo not given) [Bethanechol chloride]", "relative mutant VPS33A R498W amount": 1.36}, {"smiles": "CC(C)n1c(/C=C/C(O)CC(O)CC(=O)O)c(-c2ccc(F)cc2)c2ccccc21", "note": "(stereo not given) [Fluvastatin Sodium]", "relative mutant VPS33A R498W amount": 2.48}, {"smiles": "CCOC(=O)[C@H](CCc1ccccc1)N[C@H]1CS[C@H](c2cccs2)CN(CC(=O)O)C1=O", "note": "[Temocapril HCl]", "relative mutant VPS33A R498W amount": 1.49}, {"smiles": "CNC(=O)c1cc(Oc2ccc(NC(=O)Nc3ccc(Cl)c(C(F)(F)F)c3)c(F)c2)ccn1", "note": "[Regorafenib hydrochloride]", "relative mutant VPS33A R498W amount": 0.194}]}]}
